# Data published in PubChem BioAssay AID1468 (National Center for Advancing Translational Sciences (NCATS), 2008).
# Among all 280,000 compounds or so, about 1,100 (0.39%) were called active. Inconclusive results, whose numbers are uncertain, are shown with a selection of clear calls. The call rests on the fitted dose curve; in most records, active means well fitted inhibition curve with a large enough effect; inconclusive means small, poorly fitted or top-dose-only effect, or effect the other way; inactive means flat fitted curve, though single readings scatter. No potency is given beside an inconclusive call; the fits are too rough.
# Molecular target: Microtubule-associated protein tau (Homo sapiens) (UniProt P10636)
# Sequence of UniProt P10636 (P10636 whole entry, looked up): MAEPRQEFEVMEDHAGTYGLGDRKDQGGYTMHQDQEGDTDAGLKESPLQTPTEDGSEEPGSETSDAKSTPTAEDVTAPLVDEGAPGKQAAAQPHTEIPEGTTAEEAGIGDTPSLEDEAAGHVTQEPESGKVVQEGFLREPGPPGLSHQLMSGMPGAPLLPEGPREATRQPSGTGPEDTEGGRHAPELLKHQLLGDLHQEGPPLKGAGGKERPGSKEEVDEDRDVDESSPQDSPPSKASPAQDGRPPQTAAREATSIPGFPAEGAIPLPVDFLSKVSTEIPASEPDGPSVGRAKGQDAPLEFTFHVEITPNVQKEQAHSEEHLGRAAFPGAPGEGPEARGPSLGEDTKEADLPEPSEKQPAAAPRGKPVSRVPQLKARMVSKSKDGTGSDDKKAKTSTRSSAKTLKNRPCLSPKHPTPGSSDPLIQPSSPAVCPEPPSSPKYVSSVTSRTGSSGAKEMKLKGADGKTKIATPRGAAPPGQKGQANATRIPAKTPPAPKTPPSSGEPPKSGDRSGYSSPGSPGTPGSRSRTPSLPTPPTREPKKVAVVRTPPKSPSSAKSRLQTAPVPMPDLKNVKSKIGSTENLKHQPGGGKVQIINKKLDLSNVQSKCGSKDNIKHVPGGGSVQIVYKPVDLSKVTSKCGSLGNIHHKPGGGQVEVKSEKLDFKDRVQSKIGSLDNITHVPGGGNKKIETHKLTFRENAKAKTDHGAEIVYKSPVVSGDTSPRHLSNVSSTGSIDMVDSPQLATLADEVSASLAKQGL
# Test: qHTS for Inhibitors of Tau Fibril Formation, Fluorescence Polarization; further: nearly all actives have a fitted effect of over 55% in size
# Conditions: K18 P301L tau heparin fibrillization, Alexa594 FP, 6 h; series mostly up to 57.7 µM; activity, negative = inhibition: at the top concentration
# Procedure, shortened: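 Recombinant K18 P301L […], labeled with Alexa 594 at 0.24 uM over 15 uM unlabeled; heparin inducer 20 uM final; 37 C, 6 hr; FP endpoint.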
# On the % scale 0 is the no-effect control and ±100 the full control effect; potency means the concentration at half of the fitted maximal effect; tags describe the fitted curve by direction and shape.
Structure (SMILES),Potency,"activity, negative = inhibition"
Cc1ccc(NC(=O)c2c(C)oc3ccc(O)c(CN4CCN(Cc5ccccc5)CC4)c23)cc1,"inconclusive [inhibitor, single point]",
CCN(CC)S(=O)(=O)c1cccc(NC(=O)c2cc(=O)[nH]c3ccccc23)c1,"inconclusive [inhibitor, single point]",
O=S(=O)(c1ccc(Br)cc1)N1CCn2c(nc3ccccc32)C1,"inconclusive [inhibitor, single point]",
COc1ccc(Nc2ncc3c(n2)CCN(Cc2sccc2C)C3)c(OC)c1,"inconclusive [activator, full curve, poor fit]",
O=C(CNc1ccc(F)cc1)N/N=C1\CCCc2ccccc21,"inconclusive [activator, single point]",
Cc1cc(=O)n(CC(=O)Nc2ccc(Cl)c(Cl)c2)c(-n2nc(C)cc2C)n1,"inconclusive [inhibitor, partial curve, poor fit]",
COc1ccc(CSc2ncnc3sccc23)cc1F,"inconclusive [inhibitor, single point]",
Cc1ccc(NC(=O)C(C)S)cc1 (stereo unspecified),"inconclusive [inhibitor, partial curve]",
CCOC(=O)CN1C(=O)N(c2ccc(C)c(C)c2)S(=O)(=O)c2ccccc21,,inactive: -4.52%
CCS(=O)(=O)NCc1ccc2[nH]c3c(c2c1)CCCC3,,inactive: 2.81%
Cc1cc(C)cc(N(CC(=O)Nc2c(C)cc(C)cc2C)S(=O)(=O)c2c(C)nn(C)c2C)c1,,inactive: 5.82%
COC(=O)C1=C(C)N(CCc2ccc(OC)c(OC)c2)C(=O)/C1=C\N(C)C,"inconclusive [inhibitor, partial curve]",
CCOc1ccccc1NC(=S)NC(=O)CCCOc1ccc(Cl)cc1Cl,"inconclusive [inhibitor, partial curve, poor fit]",
C=CCn1c(SCc2csc(C)n2)nc2sc3c(c2c1=O)CCCC3,,inactive: 2.08%
COc1cc(/C=C/c2ccc3cccc(OC)c3n2)c(OC(C)=O)c([N+](=O)[O-])c1,"inconclusive [inhibitor, partial curve]",
CCOC(=O)c1[nH]c2c(c1Cc1ccccc1)C(=O)CC(c1ccc(C(C)(C)C)cc1)C2 (stereo unspecified),"inconclusive [inhibitor, partial curve]",
COc1ccc(Cl)cc1C(=O)CSc1nnnn1C1CCCCC1,,inactive: 3.96%
N#Cc1ccc(-c2csc(NC(=O)c3ccc(S(=O)(=O)N4CCc5ccccc5C4)cc3)n2)cc1,"inconclusive [inhibitor, partial curve]",
Cn1nc(C(=O)Nc2sc3c(c2C#N)CCCC3)ccc1=O,,inactive: -2.7%
CC(C)OC(=O)C1=C(N)N2C(=O)CSC2=C(C(=O)OC(C)C)C1,,inactive: 3.72%
CC1(C)Cc2ccccc2C2=NNC(=O)C2=N1,"inconclusive [inhibitor, partial curve]",
Cc1cccc(C)c1NC(=S)N(c1ccccc1)C(C)C,,inactive: 0.848%
COc1ccc(/C=C2/SC(c3ccc(C)cc3)=NC2=O)cc1OC,"inconclusive [inhibitor, partial curve]",

Structure (SMILES),Potency,"activity, negative = inhibition"
CC1(C)C(C=C(Cl)Cl)C1C(=O)Nc1ccc([N+](=O)[O-])cc1 (stereo unspecified),"inconclusive [inhibitor, single point]",
C=CCNC1=C(Cl)C(=O)c2ccccc2C1=O,,inactive: 1.97%
C=CCOc1ccc(CNc2ccc(NC(=O)CCC)cc2)cc1OCC,"inconclusive [activator, single point]",
COC(=O)c1sccc1S(=O)(=O)N1CCN(c2cccc(C)c2)C(C)C1 (stereo unspecified),,inactive: -4.65%
COc1ccccc1C1=Nn2c(COc3ccccc3)nnc2SC1,"inconclusive [inhibitor, full curve]",
Cc1c(C(=O)OCc2ccccc2)[nH]c2c1C(=O)CC(c1ccco1)C2 (stereo unspecified),"inconclusive [inhibitor, single point]",
CN1C(=O)c2ccccc2Sc2ccc(NC(=O)Cc3ccc(Cl)cc3)cc21,"inconclusive [inhibitor, partial curve]",
CCCCc1ccc(NC(=O)Cn2cnc3c(oc4ccccc43)c2=O)cc1,"inconclusive [inhibitor, single point]",
Cc1cc(/C=c2\sc3nc4ccccc4n3c2=O)c(C)n1-c1ccc(C(=O)O)cc1,,inactive: -2.51%
Clc1ccccc1N=C1SCCS1,,inactive: 3.05%
O=C1C2C3C=CC(C3)C2C(=O)N1c1ccc2c(c1)OCO2 (stereo unspecified),"inconclusive [inhibitor, single point]",
N=c1ccn2c(n1)O[C@H]1[C@@H](O)[C@@H](CO)O[C@H]12,,inactive: 1.73%
Cn1c[n+](C)cc1/C=N/O,,inactive: -9.19%
CC(=O)Nc1ccc(S(=O)(=O)NCCc2csc3nc(-c4ccc(Cl)cc4)nn23)cc1,"inconclusive [inhibitor, partial curve]",
CCC1CN(C(=O)NCc2ccc(F)cc2)c2cc(C)ccc2O1 (stereo unspecified),"inconclusive [inhibitor, partial curve]",
Cc1nc(-c2ccccc2)nc2sc(C(=O)c3ccc(F)cc3)c(N)c12,"inconclusive [inhibitor, full curve, poor fit]",
Cc1ccccc1N1CCN(C(=S)c2ccc(-c3cccc([N+](=O)[O-])c3)o2)CC1,,inactive: 9.77%
O=C(CSc1ccnc(=O)[nH]1)NCc1ccc(F)cc1,,inactive: -3.73%
C=CCn1c(O)c(C2=c3ccccc3=NC2=O)sc1=Nc1ccc(O)cc1,"inconclusive [inhibitor, single point]",
CC(=O)Nc1ccc(-c2csc(Nc3cc(C)ccn3)n2)cc1,,inactive: 8.35%
O=c1c2sc3ccccc3c2n(Cc2cccc(Cl)c2)c(=O)n1Cc1ccccc1,"inconclusive [inhibitor, single point]",
Cc1ccc2nc(NC(=O)c3ccco3)sc2c1,"inconclusive [inhibitor, full curve, poor fit]",
O=C(c1ccco1)N1CCN(C/C=C/c2ccccc2)CC1,"inconclusive [inhibitor, full curve, poor fit]",
